Source: PubChem BioAssay AID1159614 (National Center for Advancing Translational Sciences (NCATS), 2016)
The whole screen tested about 45,000 compounds, of which about 65 (0.1%) were called active. Calls come from the whole dose curve; as a rule, active = well fitted activation curve with a large enough effect; inconclusive = small, poorly fitted or top-dose-only effect; inactive = no such curve, though single readings can be large or run the other way. Some of the results follow.

Biological target: Galactocerebrosidase (Homo sapiens) (UniProt P54803)
UniProt P54803, sequence (P54803 whole entry, looked up): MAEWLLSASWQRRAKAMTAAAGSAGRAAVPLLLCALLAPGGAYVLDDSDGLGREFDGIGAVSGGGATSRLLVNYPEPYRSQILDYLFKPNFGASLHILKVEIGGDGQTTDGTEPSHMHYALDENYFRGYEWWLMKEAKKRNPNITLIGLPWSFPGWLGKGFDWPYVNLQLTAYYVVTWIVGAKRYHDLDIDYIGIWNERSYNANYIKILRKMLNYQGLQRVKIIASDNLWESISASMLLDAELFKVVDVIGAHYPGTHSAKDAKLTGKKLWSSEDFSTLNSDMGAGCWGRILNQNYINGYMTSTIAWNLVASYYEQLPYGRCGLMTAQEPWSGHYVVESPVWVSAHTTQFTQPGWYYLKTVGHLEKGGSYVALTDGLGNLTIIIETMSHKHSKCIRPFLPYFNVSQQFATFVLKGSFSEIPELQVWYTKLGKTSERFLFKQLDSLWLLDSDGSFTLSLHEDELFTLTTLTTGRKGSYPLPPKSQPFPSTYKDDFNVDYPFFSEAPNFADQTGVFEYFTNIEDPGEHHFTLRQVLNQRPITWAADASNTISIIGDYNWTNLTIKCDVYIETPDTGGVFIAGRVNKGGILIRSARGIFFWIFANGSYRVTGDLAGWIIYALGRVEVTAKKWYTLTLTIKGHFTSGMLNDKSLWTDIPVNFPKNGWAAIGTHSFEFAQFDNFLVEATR
Test: A Novel Cell-Based Assay to Identify Small Molecules for B -Galactocerebrosidase; note: 0% is about no effect; nearly all actives have a fitted effect of over 65% in size
Details: 145M-Twi-hGALC-G270D cells (Twitcher mouse brain line with human GALC G270D), HMU-beta-Gal fluorescence, 48 h; series mostly up to 57.5 µM; activation: at the top concentration
Method in brief: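 Brain-derived Twitcher mouse 145M-Twi cells stably expressing human GALC-G270D or wild-type GALC, treated live, then residual GALC activity read by fluorescence of HMU-b-Gal substrate (0.1 mM final) in citrate-phosphate buffer pH 5.2 with sodium taurocholate. Signal increase indicates enhancement.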

activation, inactive:
CSc1ccc(CCNC(=O)CCc2c(C)nc3cc(-c4ccccc4)nn3c2C)cc1 -2.8%
CCNC(=O)c1ccc2nc(Cc3ccccc3)oc2c1 -7.27%
COc1cc2[nH]c(=O)n(CCCCCC(=O)NCCc3ccccc3)c(=O)c2cc1OC -16.9%
Fc1ccc(-c2ccc(CNCCSc3nnnn3-c3ccccc3)o2)cc1Cl -26.9%
O=C(Nc1c(C(=O)Nc2cccc(F)c2)oc2ccccc12)c1cc2ccccc2o1 -5.9%
CCOc1nc(-c2ccc(C)cc2)ccc1-c1noc(-c2ccccc2F)n1 -11.7%
O=C(Nc1nnc(S(=O)(=O)N2CCc3ccccc32)s1)c1ccccc1 -8.3%
CC(C)COc1ccc(C(=O)N2CCN(CCc3ccccn3)CC2)cc1 -5.2%
COc1cccc(C2c3c(-c4ccccc4O)n[nH]c3C(=O)N2CCc2ccc(OC)c(OC)c2)c1 (configuration not stated) -7.13%
O=C(CSc1ncc(CO)n1Cc1ccccc1)Nc1ccc(C(F)(F)F)cc1 -29.4%
CCOC(=O)c1c(NC(=O)COc2cccc(C(F)(F)F)c2)sc2c1CCCCC2 -7.61%
COc1ccc(NC(=O)CC(C)n2nc(C)cc2C)cc1Cl (configuration not stated) -13%
COc1ccc(CCNC(=O)CCc2c(C)c3cc4c(C)c(C)oc4cc3oc2=O)cc1 -5.07%
CCn1c(C(=O)Nc2cc(Cl)ccc2C)cc2sc(Cl)cc21 -11.6%
CCOc1ccc(CCNC(=O)Cn2ncn3c(cc4ccccc43)c2=O)cc1OCC -5.27%
COc1cc(NC(=O)c2cnc3c(-c4ccc(F)cc4)c(C)nn3c2C)cc(OC)c1 -12.3%
Cc1ccc(Sc2c(C(=O)NCc3ccccc3C)[nH]c3ccccc23)cc1 -1.75%
COc1ccc(CNC(=O)CN2C(=O)CCCc3ccccc32)cc1 -6.75%
CCN(CC)S(=O)(=O)c1ccc2oc(C(=O)Nc3ccc(Br)cc3F)c(C)c2c1 -8.67%
Cc1ccc(-c2nc3ccc(Cl)cn3c2Nc2ccc3c(c2)OCCO3)s1 2.45%
COc1cc(Nc2nc3c(S(=O)(=O)c4cccc(Cl)c4)nnn3c3ccsc23)cc(OC)c1 -16.3%
Cc1ccc2c(c1)c1c(c(=O)n(-c3cccc(Cl)c3)c(=O)n1CC(N)=O)n2C -8.77%
CCOc1ccc(NC(=O)Cn2nc(CC)n3c(cc4sccc43)c2=O)cc1 -20.2%
COc1ccc(OCC(=O)Nc2cc(-c3nc4ccccc4o3)ccc2Cl)cc1 -8.12%
COC(=O)c1ccccc1NC(=O)Cn1c(=O)n(-c2ccc(C)cc2)c(=O)c2ccccc21 -10.7%
Cc1ccccc1OCCSc1nc2ccc(NC(=O)c3ccco3)cc2s1 -30.8%
Cc1ccc(NC(=O)CN2C(=O)c3ccccc3Sc3ccc(C(=O)N4CCOCC4)cc32)cc1C -7.23%
O=C1Nc2ccccc2C1Cc1ccc(Br)cc1 (configuration not stated) -10.9%
COc1ccccc1OCCNCC(O)COc1cccc2[nH]c3ccccc3c12 (configuration not stated) -8.9%
CCC(=O)N1CCc2cc(S(=O)(=O)NCCC(=O)Nc3ccc(C)cc3C)ccc21 -11.4%
Cc1ccc(NC(=O)CSc2nc3nccnc3c(=O)n2CCc2c[nH]c3ccccc23)cc1C -5.49%
Cc1ccc(CNC(=O)Cn2ccn(-c3ccc(F)c(F)c3)c(=O)c2=O)cc1 -17.8%
CCCn1c(=N)c(C(=O)NCc2ccco2)cc2c(=O)n3cc(C)ccc3nc21 -8.24%
CCC(Sc1nc2ccncc2[nH]1)C(=O)Nc1cc(C)ccc1C (configuration not stated) 10.5%
Oc1c(C(c2ccc(Cl)cc2Cl)N2CCN(Cc3ccccc3)CC2)sc2nc(-c3ccco3)nn12 (configuration not stated) -10.4%
CC(=O)c1cccc(NC(=O)c2cc3sc(Cl)cc3n2C)c1 -14.7%
CCOc1ccc(C(=O)Nc2ccc(C(=O)OCc3cc(=O)n4c(C)csc4n3)cc2)cc1 4.66%
Cc1ccc(CNC(=O)c2ccc(N3Cc4ccccc4Oc4ncccc43)s2)cc1 -7.81%
CCOCCCNC(=O)C(c1ccc(Cl)cc1)N(Cc1ccc2c(c1)OCO2)C(=O)c1ccc(NC(C)=O)cc1 (configuration not stated) -2.27%
CCC(=O)Nc1ccc(-c2nc3ncccc3o2)cc1C -22.2%
CC(C)c1nc(CN(C)C(=O)N[C@H](C(=O)N[C@@H](Cc2ccccc2)C[C@H](O)[C@H](Cc2ccccc2)NC(=O)OCc2cncs2)C(C)C)cs1 -5.68%
COCCNC(=O)CCCn1c(SCc2ccccc2C)nc2c(sc3ccccc32)c1=O -35.6%
Cc1ccc(C2N3CC4(C)CN2CC(c2ccccc2)(C3)C4=O)cc1 (configuration not stated) -11.4%
CCn1cc(/C=C(\NC(=O)c2ccccc2Cl)C(=O)NCCCn2ccnc2)c2ccccc21 1.76%
O=C(NCCc1ccccc1)c1ccc2c(c1)CCN2S(=O)(=O)c1ccc(Cl)cc1 -14.8%
CC1CCN(S(=O)(=O)c2ccc3c(c2)N(CC(=O)NCCN(C)C)C(=O)CS3)CC1 -3.17%
Cc1ccc2c(CC(=O)Nc3ccc(S(=O)(=O)N4CCCC(C)C4)cc3)coc2c1 (configuration not stated) 2.78%
O=C(Cn1c(=O)c2cccn2c2ccc(F)cc21)Nc1cccc(F)c1 -2.57%
CCCCN(C)C(=O)C1CCC(Cn2c(=O)[nH]c3ccsc3c2=O)CC1 (configuration not stated) -14.8%
COC(=O)c1cc(NC(=O)Cn2ncc3c([nH]c4ccccc43)c2=O)cc(C(=O)OC)c1 6.32%
Cc1ccc(Cl)cc1NC(=O)c1cc(S(=O)(=O)N2CCOCC2)cn1C -6.41%
COc1ccccc1CNc1ncnc2c1nc1n2CCCC1 -12.6%
Cc1cc(NC(=O)c2cc(-c3ccc(F)cc3)on2)nn1Cc1ccc(Cl)cc1 -27.3%
O=C(O)c1ccc2c(c1)N(Cc1ccc(F)cc1)C(=O)c1ccccc1S2=O (configuration not stated) -9.29%
COc1ccccc1CNS(=O)(=O)c1c(C)nc2sc(C)cn2c1=O -14.6%
Cc1oc2ncnc(N3CCOCC3)c2c1C(=O)Nc1ccc(Br)cc1F -20.8%
CCOc1ccc(-c2cc3c(=O)n(CC(=O)NCc4ccccc4)ccn3n2)cc1 -9.23%
Fc1ccc(-n2nc(-c3ccccc3)c3cnc4ccccc4c32)cc1Cl -7.53%
OC(c1ccccc1)c1nc2ccccc2n1Cc1c(F)cccc1Cl (configuration not stated) -17.9%
O=C(Nc1ccc(Cl)cc1F)c1cc(S(=O)(=O)NC2CCCCCC2)ccc1F -15.7%
CCCc1nn2c(=O)cc(COC(=O)c3ccccc3NC(=O)c3ccc(OCC)cc3)nc2s1 -12.4%
CC(C)CCNC(=O)C1CCC(CNS(=O)(=O)c2cccc3nsnc23)CC1 (configuration not stated) -20.1%
CCc1ccc(NC(=O)CN2C(C(=O)OC)=C(c3ccccc3)c3ccccc3S2(=O)=O)cc1 -8.44%
O=C(CSc1nc(=O)n(Cc2ccccn2)c2c1CCC2)Nc1cccc(Cl)c1 -9.86%
COCCNC(=O)CSc1nc(-c2ccc(C)cc2)[nH]c1-c1ccc(OC)cc1 -20.2%
COc1ccc(Cl)cc1NC(=O)CSc1nc(=O)[nH]c2c1CCC2 -20.5%
Cc1cccc(NC(=O)c2oc3ccccc3c2NC(=O)Cc2coc3cc(C)cc(C)c23)c1 -12.7%
Cc1ccccc1OCC(=O)Nc1ccccc1C(=O)OCc1cc(=O)n2nc(C3CC3)sc2n1 -16%
Cc1ccc(C(=O)c2cn(Cc3ccccc3)c3ccccc3c2=O)cc1 -7.84%
Cc1cccc(-c2nc3cc(NC(=O)COc4ccccc4F)ccc3o2)c1 -15.1%
COc1ccc(NC(=O)Cn2ccn(-c3ccc(C)c(C)c3)c(=O)c2=O)cc1Cl -8.79%
Cc1cc(N2CCN(c3ccc(F)cc3)CC2)n2cnnc2n1 -11.7%
Cc1ccc(-c2c3c(=O)n(C)c(=O)n(C)c3c3c(C)nc4ccccc4n23)cc1 -15.2%
CC1CCN(c2nc3ccccc3nc2C(F)(F)F)CC1 -10.4%
Cc1ccc2ncc(C(=O)c3ccc(C)c(C)c3)c(S(=O)(=O)c3ccccc3)c2c1 -6.91%
CCOc1cccc(C2c3c(oc4ccc(F)cc4c3=O)C(=O)N2c2cc(C)ccn2)c1 (configuration not stated) -18.6%
O=C(Nc1nc2ccccc2n1CCOc1ccccc1Cl)c1ccccc1 -8.05%
Cc1cccc(CN2C(=O)c3ccccc3Sc3ccc(C(=O)NCCCN4CCOCC4)cc32)c1 2.56%
CC1CN(C(=O)N2CCC(C(=O)NCc3ccco3)CC2)c2ccccc2O1 (configuration not stated) -16.7%
CCN(CC)S(=O)(=O)c1nnc(NC(=O)c2ccc(C)cc2)s1 -15.4%
CC(=O)N1CCc2cc(S(=O)(=O)NC(Cc3ccccc3)C(=O)Nc3cc(C)cc(C)c3)ccc21 (configuration not stated) -11.4%
CC1CCCCN1CCCNC(=O)Cn1ncc2c3ccccc3n(Cc3ccccc3)c2c1=O (configuration not stated) -15.1%
COc1ccccc1N1CCN(Cc2nc(-c3cc(OC)c(OC)c(OC)c3)no2)CC1 10.6%
COc1ccccc1C1C(C(=O)Nc2ccccc2)=C(C)Nc2nc(-c3ccccc3)nn21 (configuration not stated) -19.2%
O=C(Cn1ncc2c3ccccc3n(Cc3ccccc3)c2c1=O)NCCCN1CCCCC1 -10.5%
Cc1ccc(Cl)cc1N1CCN(C(=O)CCc2nnc3n(C)c(=O)c4ccccc4n23)CC1 4.56%
Cc1ccc(NC(=O)CSc2nc3n[nH]c(C)c3c(=N)n2-c2ccccc2C)cc1C -14.5%
CCN(Cc1ccccc1)C(=O)c1cn(-c2cccc(OC)c2)c(=O)c2ccccc12 -9.61%
COc1ccc(CNC(=O)C(CC(C)C)NS(=O)(=O)c2ccc3c(c2)CCN3C(C)=O)cc1 (configuration not stated) -14.3%
COc1ccc(-c2cc(C(=O)Oc3ccc(C#N)cc3)no2)cc1 -12.7%
O=S1(=O)c2ccccc2N(Cc2ccc(F)cc2)c2ccccc21 -14.1%
CCCc1cc(=O)[nH]c(SCc2nc(-c3ccccc3)no2)n1 -5.07%
O=C(NCCOCCn1c(=O)oc2ccccc21)Nc1ccc(F)cc1F -14.8%
COc1ccc(Nc2nnc(-n3nc(C)cc3C)c3ccccc23)cc1 -9.89%
CNC(=O)c1c(I)c(NC(=O)CCCCC(=O)Nc2c(I)c(C(=O)O)c(I)c(C(=O)NC)c2I)c(I)c(C(=O)O)c1I -3.02%
CCOc1ccc(NC(=O)CN(c2ccc(C)cc2)S(=O)(=O)c2cccs2)cc1 -1.93%
COc1ccc(CNC(=O)c2cc3c(=O)n(Cc4ccc(OC)cc4)ccc3nc2C)cc1 -9.36%
